# According to the supplement of paper PMC8728848:
# Some of the results follow.
# Tests used:
# Assay in all cases: glycan array binding signal (z-score within array); higher = stronger binding
# Conditions in all cases: glycan notation: IUPAC condensed, linker removed
# [1] = molecular target: Man(a1-2)Man(a1-3)[Man(a1-2)Man(a1-6)]Man(a1-6)[Man(a1-2)Man(a1-2)Man(a1-3)]Man
# Summary of the method: (§1)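 The binding signal is a Z-score computed within each array. Data were drawn from 3228 arrays in the Consortium for Functional Glycomics database, restricted to those with a known protein sequence. Scores were averaged over arrays of the same protein sequence at different concentrations or buffers, and over linkers, and negative values can be taken as non-binding.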
# [2] = molecular target: Man(a1-2)Man(a1-3)[Man(a1-2)Man(a1-6)]Man(a1-6)[Man(a1-2)Man(a1-2)Man(a1-3)]Man(b1-4)GlcNAc(b1-4)GlcNAc
# Summary of the method: as §1
# [3] = molecular target: Man(a1-2)Man(a1-3)[Man(a1-6)]Man(a1-6)[Man(a1-2)Man(a1-3)]Man(b1-4)GlcNAc(b1-4)GlcNAc
# Summary of the method: as §1
# [4] = molecular target: Man(a1-2)Man(a1-6)[Man(a1-3)]Man(a1-6)[Man(a1-2)Man(a1-2)Man(a1-3)]Man
# Summary of the method: as §1
# [5] = molecular target: Man(a1-2)Man(a1-6)[Man(a1-3)]Man(a1-6)[Man(a1-2)Man(a1-2)Man(a1-3)]Man(b1-4)GlcNAc(b1-4)GlcNAc
# Summary of the method: as §1
# [6] = molecular target: Man(a1-3)[Man(a1-6)]Man
# Summary of the method: as §1
# [7] = molecular target: Man(a1-3)[Man(a1-6)]Man(a1-6)[Man(a1-2)Man(a1-3)]Man(b1-4)GlcNAc(b1-4)GlcNAc
# Summary of the method: as §1
# [8] = molecular target: Man(a1-3)[Man(a1-6)]Man(a1-6)[Man(a1-3)]Man
# Summary of the method: as §1
# [9] = molecular target: Man(a1-3)[Man(a1-6)]Man(a1-6)[Man(a1-3)]Man(b1-4)GlcNAc(b1-4)GlcNAc
# Summary of the method: as §1
# [10] = molecular target: Man(a1-3)[Man(a1-6)]Man(b1-4)GlcNAc(b1-4)GlcNAc
# Summary of the method: as §1
# [11] = molecular target: Man(a1-3)[Man(a1-6)]Man(b1-4)GlcNAc(b1-4)[Fuc(a1-6)]GlcNAc
# Summary of the method: as §1
# [12] = molecular target: Man(a1-6)Man
# Summary of the method: as §1
# [13] = molecular target: Man(b1-4)GlcNAc
# Summary of the method: as §1
# [14] = molecular target: MurNAc(b1-4)GlcNAc
# Summary of the method: as §1
# [15] = molecular target: Neu5Ac(a2-3)Gal
# Summary of the method: as §1
# [16] = molecular target: Neu5Ac(a2-3)Gal(b1-3)GalNAc
# Summary of the method: as §1
# [17] = molecular target: Neu5Ac(a2-3)Gal(b1-3)GalNAc(b1-3)Gal(a1-4)Gal(b1-4)Glc
# Summary of the method: as §1
# [18] = molecular target: Neu5Ac(a2-3)Gal(b1-3)GalNAc(b1-4)[Neu5Ac(a2-3)]Gal(b1-4)Glc
# Summary of the method: as §1
# [19] = molecular target: Neu5Ac(a2-3)Gal(b1-3)GalNAc(b1-4)[Neu5Ac(a2-8)Neu5Ac(a2-3)]Gal(b1-4)Glc
# Summary of the method: as §1
# [20] = molecular target: Neu5Ac(a2-3)Gal(b1-3)GalNAc6S
# Summary of the method: as §1
# [21] = molecular target: Neu5Ac(a2-3)Gal(b1-3)GlcNAc
# Summary of the method: as §1
# [22] = molecular target: Neu5Ac(a2-3)Gal(b1-3)GlcNAc(b1-2)Man
# Summary of the method: as §1
# [23] = molecular target: Neu5Ac(a2-3)Gal(b1-3)GlcNAc(b1-2)Man(a1-3)[GlcNAc(b1-4)][Neu5Ac(a2-3)Gal(b1-3)GlcNAc(b1-2)Man(a1-6)]Man(b1-4)GlcNAc(b1-4)GlcNAc
# Summary of the method: as §1
# [24] = molecular target: Neu5Ac(a2-3)Gal(b1-3)GlcNAc(b1-2)Man(a1-3)[Neu5Ac(a2-3)Gal(b1-3)GlcNAc(b1-2)Man(a1-6)]Man(b1-4)GlcNAc(b1-4)GlcNAc
# Summary of the method: as §1
# [25] = molecular target: Neu5Ac(a2-3)Gal(b1-3)GlcNAc(b1-2)[Neu5Ac(a2-3)Gal(b1-3)GlcNAc(b1-4)]Man(a1-6)[Neu5Ac(a2-3)Gal(b1-3)GlcNAc(b1-2)Man(a1-3)]Man(b1-4)GlcNAc(b1-4)GlcNAc
# Summary of the method: as §1
# [26] = molecular target: Neu5Ac(a2-3)Gal(b1-3)GlcNAc(b1-3)Gal(b1-3)GlcNAc
# Summary of the method: as §1
# [27] = molecular target: Neu5Ac(a2-3)Gal(b1-3)GlcNAc(b1-3)Gal(b1-4)GlcNAc
# Summary of the method: as §1
# [28] = molecular target: Neu5Ac(a2-3)Gal(b1-3)GlcNAc(b1-3)GalNAc
# Summary of the method: as §1
# [29] = molecular target: Neu5Ac(a2-3)Gal(b1-3)GlcNAc(b1-4)Gal(b1-4)Glc
# Summary of the method: as §1
# [30] = molecular target: Neu5Ac(a2-3)Gal(b1-3)GlcNAc(b1-6)GalNAc
# Summary of the method: as §1
# [31] = molecular target: Neu5Ac(a2-3)Gal(b1-3)GlcNAc6S
# Summary of the method: as §1
# [32] = molecular target: Neu5Ac(a2-3)Gal(b1-3)[Fuc(a1-4)]GlcNAc
# Summary of the method: as §1
# [33] = molecular target: Neu5Ac(a2-3)Gal(b1-3)[Fuc(a1-4)]GlcNAc(b1-3)Gal(b1-3)[Fuc(a1-4)]GlcNAc
# Summary of the method: as §1
# [34] = molecular target: Neu5Ac(a2-3)Gal(b1-3)[Fuc(a1-4)]GlcNAc(b1-3)Gal(b1-4)[Fuc(a1-3)]GlcNAc
# Summary of the method: as §1
# [35] = molecular target: Neu5Ac(a2-3)Gal(b1-3)[GlcNAc(b1-6)]GalNAc
# Summary of the method: as §1
# [36] = molecular target: Neu5Ac(a2-3)Gal(b1-3)[Neu5Ac(a2-6)]GalNAc
# Summary of the method: as §1
# [37] = molecular target: Neu5Ac(a2-3)Gal(b1-3)[Neu5Ac(a2-6)]GlcNAc(b1-3)[Fuc(a1-3)[Gal(b1-4)]GlcNAc(b1-6)]Gal(b1-4)Glc
# Summary of the method: as §1
# [38] = molecular target: Neu5Ac(a2-3)Gal(b1-3)]Neu5Ac(a2-3)Gal(b1-4)]GlcNAc
# Summary of the method: as §1
# [39] = molecular target: Neu5Ac(a2-3)Gal(b1-4)Glc
# Summary of the method: as §1
# [40] = molecular target: Neu5Ac(a2-3)Gal(b1-4)GlcNAc
# Summary of the method: as §1
# [41] = molecular target: Neu5Ac(a2-3)Gal(b1-4)GlcNAc(b1-2)Man
# Summary of the method: as §1
# [42] = molecular target: Neu5Ac(a2-3)Gal(b1-4)GlcNAc(b1-2)Man(a1-3)[GlcNAc(b1-4)][Neu5Ac(a2-3)Gal(b1-4)GlcNAc(b1-2)Man(a1-6)]Man(b1-4)GlcNAc(b1-4)GlcNAc
# Summary of the method: as §1
# [43] = molecular target: Neu5Ac(a2-3)Gal(b1-4)GlcNAc(b1-2)Man(a1-3)[Neu5Ac(a2-3)Gal(b1-4)GlcNAc(b1-2)Man(a1-6)]Man(b1-4)GlcNAc(b1-4)GlcNAc
# Summary of the method: as §1
# [44] = molecular target: Neu5Ac(a2-3)Gal(b1-4)GlcNAc(b1-2)Man(a1-3)[Neu5Ac(a2-3)Gal(b1-4)GlcNAc(b1-2)Man(a1-6)]Man(b1-4)GlcNAc(b1-4)[Fuc(a1-6)]GlcNAc
# Summary of the method: as §1
# [45] = molecular target: Neu5Ac(a2-3)Gal(b1-4)GlcNAc(b1-2)Man(a1-3)[Neu5Ac(a2-6)Gal(b1-4)GlcNAc(b1-2)Man(a1-6)]Man(b1-4)GlcNAc(b1-4)GlcNAc
# Summary of the method: as §1
binder,measurement,setting,value
rCnSL-proA (Clitocybe nebularis) (protein) AAFFSLVVLLALLPFGIHASALPSTELTPRVNPNLPGPNDVFVGFRGTNNIVGAIYEKDGIKDTPLNNGADAEMGPGSYITDGLFTARIFASGSAGNNPGTTATVCKIYASGVQWRGAPKGYIPVAYFGNGPTAEQRRQTYLRTLGLPGTAIRFGNLNTNPGQGPTAPRQMVVPPGPLRSLLKASCFPAADTRLPQTLHYFEKRVDWNIITAADSQTWGH,glycan array binding signal (z-score),[1],-0.57
same,glycan array binding signal (z-score),[2],0.843
same,glycan array binding signal (z-score),[3],-0.651
same,glycan array binding signal (z-score),[4],-0.958
same,glycan array binding signal (z-score),[5],0.134
same,glycan array binding signal (z-score),[6],-0.023
same,glycan array binding signal (z-score),[7],1.72
same,glycan array binding signal (z-score),[8],-0.086
same,glycan array binding signal (z-score),[9],0.14
same,glycan array binding signal (z-score),[10],-0.212
same,glycan array binding signal (z-score),[11],-0.498
same,glycan array binding signal (z-score),[12],-0.764
same,glycan array binding signal (z-score),[13],-0.161
same,glycan array binding signal (z-score),[14],-0.247
same,glycan array binding signal (z-score),[15],-0.334
same,glycan array binding signal (z-score),[16],-0.476
same,glycan array binding signal (z-score),[17],-0.224
same,glycan array binding signal (z-score),[18],-0.333
same,glycan array binding signal (z-score),[19],0.303
same,glycan array binding signal (z-score),[20],-0.283
same,glycan array binding signal (z-score),[21],-0.334
same,glycan array binding signal (z-score),[22],-0.095
same,glycan array binding signal (z-score),[23],-0.468
same,glycan array binding signal (z-score),[24],5.37
same,glycan array binding signal (z-score),[25],0.156
same,glycan array binding signal (z-score),[26],0.093
same,glycan array binding signal (z-score),[27],-0.252
same,glycan array binding signal (z-score),[28],-0.122
same,glycan array binding signal (z-score),[29],0.012
same,glycan array binding signal (z-score),[30],0.201
same,glycan array binding signal (z-score),[31],0.754
same,glycan array binding signal (z-score),[32],-0.549
same,glycan array binding signal (z-score),[33],-0.195
same,glycan array binding signal (z-score),[34],-0.238
same,glycan array binding signal (z-score),[35],-0.348
same,glycan array binding signal (z-score),[36],-0.43
same,glycan array binding signal (z-score),[37],0.044
same,glycan array binding signal (z-score),[38],-0.475
same,glycan array binding signal (z-score),[39],0.341
same,glycan array binding signal (z-score),[40],-0.729
same,glycan array binding signal (z-score),[41],0.283
same,glycan array binding signal (z-score),[42],-0.431
same,glycan array binding signal (z-score),[43],-0.33
same,glycan array binding signal (z-score),[44],0.096
same,glycan array binding signal (z-score),[45],-0.713
